The whole screen tested about 360,000 compounds, of which about 7,500 (2.1%) were called active. The inconclusive results got no clear call from the source; some entries with a clear call stand among them for comparison. The call rests on the fitted dose curve; in most records, active means well fitted cell-killing curve with a large enough effect; inconclusive means small, poorly fitted or top-dose-only effect, or effect the other way, or another doubt; inactive means no such curve, though single readings can be large or run the other way. Potencies of inconclusive entries are left out as doubtful fits.
Test: qHTS for induction of synthetic lethality in tumor cells producing 2HG: qHTS for the HT-1080-IDH1KD cell line;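 on activity, negative = toxicity: 0% = DMSO wells and -100% = cell-free medium wells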
Settings: HT-1080 IDH1 knockdown viability, ATP luminescence, 48 h; activity, negative = toxicity: at 46.1 µM (top of the series) unless noted
In short: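 Luminescent ATP read-out (CellTiter-Glo, 10 min at room temperature) after 48 h compound exposure at 37 °C gave viability of IDH1-knockdown HT-1080 cells. Activity was normalised to DMSO and cell-free wells, then fitted as concentration-response curves.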
Potency means the concentration at half of the fitted maximal effect; tags describe the fitted curve by direction and shape.

Structure (SMILES)	Potency	activity, negative = toxicity
CCOC(=O)Cn1c(=O)oc2cc(S(=O)(=O)Nc3c(C)cc(C)cc3C)ccc21	inconclusive [cytotoxic, single point]	
CC1(c2ccccc2)CC(C)(C)N2C(=O)C3(C(C#N)=C(N)Oc4cc(O)ccc43)c3cccc1c32 (stereo not given)	inconclusive [cytotoxic, single point]	
N[C@@H](Cc1ccc(N(CCCl)CCCl)cc1)C(=O)O	inconclusive [cytotoxic, single point]	
NC(=O)c1ccc(N)nc1	active: 4.61 µM	
COc1ccc(CN2Cc3cnnn3-c3ccccc3C2C)cc1 (stereo not given)	inconclusive [cytotoxic, single point]	
CC(=O)Nc1ccccc1OC(=O)N(C)C	inactive	
Cc1cc(OC(=O)N(C)C)nc(SCc2c(Cl)cccc2Cl)n1	inconclusive [cytotoxic, single point]	
CC(C)n1c(/C=C/[C@H](O)C[C@H](O)CC(=O)O)c(-c2ccc(F)cc2)c2ccccc21	active: 9.2 µM	
Cn1c(=O)oc2cc(S(=O)(=O)N3CCC(C(=O)Nc4ccc(OC(F)(F)F)cc4)CC3)ccc21	inconclusive [cytotoxic, single point]	
CC(C)c1ccc2nc3sc(C(=O)N4CCc5ccccc5C4)c(N)c3cc2c1	inconclusive [cytotoxic, single point]	
COc1ccc(-n2c(O)c(/C(C)=N/Nc3ccccc3)c(=O)[nH]c2=O)cc1	active: 1.84 µM	
O=c1c2ccccc2nc(-c2ccoc2)n1-c1ccccc1Cl	inconclusive [cytotoxic, single point]	
O=[N+]([O-])c1ccc(-[n+]2c(-c3ccccc3)cc(-c3ccccc3)cc2-c2ccccc2)cc1	inconclusive [cytotoxic, single point]	
C=CCOC(=O)C1C(C(=O)O)C2(Cl)C(Cl)=C(Cl)C1(Cl)C2(Cl)Cl (stereo not given)	inactive	
CCCCCCC[n+]1ccc(-c2cc[n+](CCCCCCC)cc2)cc1	inconclusive [cytotoxic, full curve]	
COc1cc(/C=C/[N+](=O)[O-])ccc1O	inconclusive [cytotoxic, partial curve]	
CC1(CCl)CN1S(=O)(=O)c1ccccc1 (stereo not given)	inconclusive [cytotoxic, single point]	
CN1C(=O)NC(=O)/C(=C\C=C\c2ccccc2[N+](=O)[O-])C1=O	active: 11.6 µM	
COC(=O)C1=C(c2ccc(OC(F)(F)F)cc2)C[C@@H]2CC[C@H]1N2C(=O)N1CCCCC1	inactive	
O=c1[nH]c2ccccc2n1C1CCN(C(c2cccs2)c2nnnn2Cc2ccccc2)CC1 (stereo not given)	active: 16.4 µM	
COc1ccc(-n2nnnc2C(CCSC)N2CCC(n3c(=O)[nH]c4ccccc43)CC2)cc1 (stereo not given)	inconclusive [cytotoxic, single point]	
Cc1nn(Cc2cccc(C(=O)NC(C)c3ccc(C(C)(C)C)cc3)c2)c(C)c1[N+](=O)[O-] (stereo not given)	inconclusive [cytotoxic, single point]	

Structure (SMILES)	Potency	activity, negative = toxicity
CC(=O)O[C@H]1C(=O)[C@@]2(C)C([C@H](OC(=O)c3ccccc3)[C@]3(O)C[C@H](OC(=O)[C@H](O)[C@@H](NC(=O)Cc4ccccc4)c4ccccc4)C(C)=C1C3(C)C)[C@]1(OC(C)=O)CO[C@@H]1C[C@@H]2O (stereo not given in full)	inconclusive [cytotoxic, full curve]	
Nc1ccc(Cl)cc1C(=O)c1ccccc1Cl	inconclusive [cytotoxic, single point]	
C[C@H]1CN([C@@H](C)CO)C(=O)CCCn2nncc2CO[C@H]1CN(C)C(=O)Oc1cccc2ccccc12	inactive	
CN(C)CC1Oc2ccccc2OC1(O)c1ccccc1 (stereo not given)	active: 4.61 µM	
CCCCn1c(=O)c(C(=O)NCCc2ccccc2)c(O)c2ccccc21	inactive	
CN1C(=O)C(=Cc2sc(=O)n(-c3ccccc3)c2N(C)C)C(=O)N(C)C1=O	inconclusive [cytotoxic, single point]	
Cc1nn(CC(C)C)c(Cl)c1C(=O)NC1CCCC1	inactive	
COc1ccc(-n2nnnc2C(c2cc3ccccc3o2)N2CCC(n3c(=O)[nH]c4ccccc43)CC2)cc1 (stereo not given)	inconclusive [cytotoxic, partial curve]	
CCC1(C)CC(CCNCc2ccc(N(C)C)cc2)(c2ccc(F)cc2)CCO1 (stereo not given)	inconclusive [cytotoxic, single point]	
COc1ccc(O)c(CN2CCCC(C(=O)c3ccccc3SC)C2)c1 (stereo not given)	inconclusive [cytotoxic, partial curve]	
CCOC(=O)c1cc2c(cn1)[C@@H](CCO)NC2	inactive	
CCOC(=O)c1c(-c2ccc(OC)cc2)oc2ccc(OC(=O)N(C)C)cc12	inconclusive [cytotoxic, single point]	
CC1=C(C/C(C)=C/c2ccccc2)/C(=C/CO)[C@@H]2OC(=O)O[C@]2(C)C12CC2	inactive	
CCCCN1C(=O)C(C2c3ccccc3C(=O)N2Cc2ccccc2)C(=O)NC1=S (stereo not given)	inactive	
CCOC(=O)[C@]12Cc3cc4ccccc4cc3[C@H]1N(Cc1ccccc1)C(=O)c1ccccc12	active: 14.6 µM	
CN1CCN(CC#CCOc2ccc(Cl)cc2)CC1	inactive	
C#CCCC[C@@H]1OC(=O)CNC(=O)C([C@@H](C)CC)NC(=O)[C@@H]2CCCN2C(=O)C([C@@H](C)CC)OC(=O)[C@H](Cc2ccccc2)N(C)C(=O)[C@H](C(C)C)NC(=O)C1(C)C (stereo not given in full)	inconclusive [cytotoxic, single point]	
C[C@H]1CCC/C=C/C2C[C@H](O)CC2[C@H](O)/C=C/C(=O)O1 (stereo not given in full)	active: 0.0291 µM	
Cc1ccc(Cn2nnnc2CN2CCC(n3nnc4cc(C(F)(F)F)ccc43)CC2)cc1	inconclusive [cytotoxic, single point]	
O=CNc1ccc(OP(=O)(Oc2ccccc2)Oc2ccccc2)cc1	inconclusive [cytotoxic, partial curve]	
C=Cc1cc(OC)c2c(c1)c(=O)oc1c2cc(OC)c2c(O)ccc(C3OC(C)C(O)C(C)(O)C3O)c21 (stereo not given)	active: 1.46 µM	
Ic1ccccc1CN[C@@H]1C2CCN(CC2)[C@@H]1C(c1ccccc1)c1ccccc1	active: 20.6 µM	

Structure (SMILES)	Potency	activity, negative = toxicity
O=C(c1ccccc1F)c1cn(Cc2ccccc2)c2ccccc12	inconclusive [cytotoxic, single point]	
C[C@H]1[C@H](OC(=O)CCC(=O)NCc2ccc(C(=O)O)cc2)O[C@@H]2O[C@@]3(C)CC[C@H]4[C@H](C)CC[C@@H]1C24OO3	active: 8.2 µM	
CCC(C)n1c(O)c(C=Nc2cccc(C(F)(F)F)c2)c(=O)[nH]c1=S (stereo not given)	inactive	
COC(=O)C1=C(c2cc3ccccc3o2)C[C@@H]2CC[C@H]1N2C(=O)NCc1ccc(F)cc1	inconclusive [cytotoxic, single point]	
COc1ccc(-[n+]2c(-c3ccccc3)cc(-c3ccc(C)cc3)cc2-c2ccccc2)cc1	active: 2.59 µM	
CC(C)OCCCNC(=O)c1c(N)n(CC2CCCO2)c2nc3ccccc3nc12 (stereo not given)	inconclusive [cytotoxic, single point]	
CCC(C)NC(=O)c1c(N)n(Cc2ccc3c(c2)OCO3)c2nc3ccccc3nc12 (stereo not given)	inconclusive [cytotoxic, single point]	
Cc1ccc2c(c1)C1CN(C)CCC1N2C(=O)c1ccco1 (stereo not given)		inconclusive: 12.8%
CC1Oc2cc3c(-c4c(O)cc(O)c5c(O)c6c(cc45)OC(C)C(C)C6=O)c(O)cc(O)c3c(O)c2C(=O)C1C (stereo not given)	active: 8.2 µM	
Cc1cccc(-c2nc3ccc(C(=O)N4CCC5(CC4)OCCO5)cc3nc2-c2cccc(C)c2)c1	inconclusive [cytotoxic, single point]	
Cc1ccc(Cn2c(C)c3cnn(CC(=O)N4CCC5(CC4)OCCO5)c(=O)c3c2C)cc1	inconclusive [cytotoxic, single point]	
COC(=O)C1=C(c2cc3ccccc3s2)C[C@@H]2CC[C@H]1N2C(=O)N1CCOCC1	active: 8.2 µM	
COC(=O)C1=C(c2ccc3ccccc3c2)C[C@@H]2CC[C@H]1N2C(=O)NCc1ccc(C(F)(F)F)cc1	inconclusive [cytotoxic, partial curve]	
CCOc1cccc(=NC2CCCCC2)c2c(C)n(C)c(C)c12	active: 13 µM	
O=C(c1ccc2c(c1)ncn2C1CCCCC1)N1CCC2(CC1)OCCO2	inconclusive [cytotoxic, partial curve]	
CCCCn1c(/N=C/c2c[nH]c3ccccc23)nc2ccccc21	inconclusive [cytotoxic, single point]	
CCCCn1c(O)c(/C(CC)=N/N2CCCCC2c2cccnc2)c(=O)[nH]c1=S (stereo not given)	inconclusive [cytotoxic, partial curve]	
CC(Cc1ccccc1)NCC(=O)Nc1cc(N(C)C)nc2ccccc12 (stereo not given)	active: 23.1 µM	
O=P(Nc1cccc(Cl)c1)(Oc1ccccc1)Oc1ccccc1	inconclusive [cytotoxic, single point]	
Nc1c(C(=O)NCCc2ccccc2)c2nc3ccccc3nc2n1CCN1CCOCC1	inconclusive [cytotoxic, single point]	
CCOC(=O)c1ccc(NC(=O)Nc2ccc3c(c2)OCCO3)cc1	inconclusive [cytotoxic, single point]	

Source: PubChem BioAssay AID686971 (National Center for Advancing Translational Sciences (NCATS), 2013)
